Source: PubChem BioAssay AID686978 (National Center for Advancing Translational Sciences (NCATS), 2013)
The whole screen tested about 420,000 compounds, of which about 64,000 (15%) were called active. Inconclusive results, whose numbers are uncertain, are shown with a selection of clear calls. Calls come from the whole dose curve; as a rule, active = well fitted inhibition curve with a large enough effect; inconclusive = small, poorly fitted or top-dose-only effect; inactive = flat fitted curve, though single readings scatter. Potencies of inconclusive entries are left out as doubtful fits.

Assay: qHTS for Inhibitors of human tyrosyl-DNA phosphodiesterase 1 (TDP1): qHTS in cells in absence of CPT; note: nearly all actives have a fitted effect of over 55% in size
Conditions: DT40 Tdp1-/- hTDP1 cells, no CPT, ATP luminescence, 48 h; activity change, negative = growth inhibition: at 46.2 µM (top of the series) unless noted
How it was run: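 Cells were dispensed at 400 per well, compounds added by pin tool, plates incubated ≥48 hr at 37 °C, then CellTiter-Glo added for 30 min at room temperature before luminescence reading. Line: DT40 Tdp1-/- complemented with hTDP1; camptothecin omitted.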
% is set by controls: 0 for no effect and ±100 for the full control effect; potency is the fitted concentration of half-maximal effect; tags give direction and shape of the fitted curve.

Structure (SMILES) | Potency | activity change, negative = growth inhibition
COc1cccc(NC(=O)N2CCN(c3cccc(C)c3)C(C)C2)c1 (configuration not stated) | inconclusive [inhibitor, partial curve] | –
O=C(Nc1ccc(Br)cc1)c1cc([N+](=O)[O-])cc([N+](=O)[O-])c1 | inconclusive [inhibitor, single point] | –
CCOC(=O)c1cnc(-n2nc(C)cc2C)nc1NC1CCCCC1 | active: 5.17 µM | –
CCc1cccc(C)c1NC(=O)CN(C)Cc1ccccc1F | active: 16.4 µM | –
CCOC(=O)C1CCCN(Cc2cn3c(-c4cccc(Br)c4)nnc3s2)C1 (configuration not stated) | inconclusive [inhibitor, single point] | –
Cc1cc(C)cc(CC(=O)N2CCC2(C)C(=O)NS(=O)(=O)c2cccc(OC(F)F)c2)c1 (configuration not stated) | – | inactive: -8.04%
O=C(Cn1c(=O)n2nc(-c3ccccc3)nc2c2ccccc21)Nc1ccccc1C(F)(F)F | inconclusive [inhibitor, single point] | –
O=C(Cn1c(=O)n(Cc2ccco2)c(=O)c2c3c(sc21)CCCCC3)Nc1ccccc1 | – | inconclusive: -33.1% [inhibitor]
Cc1ccc2oc(=O)c(/C=C(\O)c3sc(C)nc3C)nc2c1 | active: 23.1 µM | –
Cn1c(=O)c2c(nc(NC3CCCCC3)n2CC(O)COc2ccccc2)n(C)c1=O (configuration not stated) | active: 23.1 µM | –
CCc1cc(-c2n[nH]c(CCC(=O)O)c2-c2nc3ccccc3n2C)c(O)cc1O | – | inactive: 5.54%
O=C(/C=C/Nc1ccc(F)cc1F)c1cccs1 | inconclusive [inhibitor, single point] | –
Cc1onc(-c2ccccc2)c1C(=O)NC(=S)NNC(=O)c1ccc(O)cc1O | active: 4.61 µM | –
COc1ccc(C(=O)Nc2ccc3[nH]c(-c4cccc(OC)c4)cc(=O)c3c2)cc1 | active: 0.651 µM | –
Cc1cccc(OCc2nnc(SCc3cc(=O)n4cc(Br)ccc4n3)o2)c1 | inconclusive [inhibitor, partial curve] | –
CC1CN(Cc2ccccc2)c2ccccc2NC1=S (configuration not stated) | inconclusive [inhibitor, partial curve] | –
CCCCc1ccc(NC(=O)CN2C(=O)NC(Cc3ccccc3)C2=O)cc1 (configuration not stated) | inconclusive [inhibitor, single point] | –
Cc1ccc2oc(=O)c3cnn(CC(=O)NCc4ccccc4Cl)c3c2c1 | – | inactive: 2.11%
C/C=C(\C)NNC(=O)Cc1ccc(OC)cc1 | – | inactive: 0.796%
COc1cccc(OC)c1-c1nn2c(-c3cc(-c4ccccc4)n[nH]3)nnc2s1 | inconclusive [inhibitor, single point] | –
CC(C)Cn1c(N)c(C(=O)CSc2nnc(-c3ccco3)n2C)c(=O)n(C)c1=O | inconclusive [inhibitor, single point] | –
COc1ccc(-c2nnc(-c3cc4ccccc4oc3=O)o2)cc1 | inconclusive [inhibitor, full curve, poor fit] | –
COc1ccc(-c2sc3ccccc3c2-c2cc(OC)ccc2C=O)cc1 | active: 20.6 µM | –
Cc1oc2cc3oc(=O)c(CCC(=O)NCCN4CCOCC4)c(C)c3cc2c1C | inconclusive [inhibitor, single point] | –

Structure (SMILES) | Potency | activity change, negative = growth inhibition
Cc1ccc(N/C=C/C(=O)c2ccccc2)cc1Br | inconclusive [inhibitor, single point] | –
O=C(CC1SC(N2CCCC2)=NC1=O)Nc1ccc(C(=O)Nc2ncccc2O)cc1 (configuration not stated) | active: 10.3 µM | –
Brc1ccc(CSc2ncn[nH]2)cc1 | – | inactive: -7.77%
CCOC(=O)N1CCC(NC(=O)c2cc(C(=O)Nc3ccc(S(=O)(=O)N4CCOCC4)cc3)ccc2CO)CC1 | – | inactive: -29.2%
CC(=O)N(CCC(Cc1ccccc1)c1ccc2c(c1)OCO2)Cc1ccc(Cl)cc1 (configuration not stated) | active: 16.4 µM | –
Nc1nonc1-n1nnc(C(=O)N/N=C/c2ccccc2)c1CSc1ccccc1 | – | inactive: -6.68%
Cc1cccc(CN2CCN(C3CN(C4CCCCC4)S(=O)(=O)C3)CC2)c1 (configuration not stated) | inconclusive [inhibitor, single point] | –
CCCCOCCCNC(=O)C[C@@H]1C[C@@]2(C(=O)OC)CCCCC=C2N(Cc2ccc(Cl)cc2Cl)C1=O | inconclusive [inhibitor, single point] | –
O=C(CCc1c[nH]c2ccccc12)N[C@@H](Cc1c[nH]c2ccc(O)cc12)C(=O)O | – | inactive: 0.924%
CCOC(=O)c1ccc(NC(=O)NCCc2ccccc2OC)cc1 | active: 14.6 µM | –
Cc1nnc(NC(=O)CN2CC(C)OC(C)C2)s1 (configuration not stated) | – | inactive: 10.3%
CC(NC(=S)Nc1c(Br)cccc1OC(F)F)C(C)(C)C (configuration not stated) | inconclusive [inhibitor, single point] | –
Cn1c(=S)[nH]c2c(c1=O)C(C)(C)Cc1ccccc1-2 | inconclusive [inhibitor, single point] | –
Cn1nc(C(=O)N2CCN(C(c3ccccc3)c3ccccc3)CC2)c2ccccc2c1=O | inconclusive [inhibitor, single point] | –
CC(=O)NC(c1ccccc1)c1nc(-c2cc(F)cc(F)c2)cs1 (configuration not stated) | – | inactive: -15%
CC(C)(C)OC(=O)NCc1ccc(CNC(=O)c2nc[nH]c2C(=O)N2CCc3ccccc3C2)cc1 | active: 18.4 µM | –
Cc1cccc(C2(c3cccc(C)c3)CC2C(=O)NCC2CCCO2)c1 (configuration not stated) | inconclusive [inhibitor, single point] | –
CCN(CC)CCCNC(=O)c1ccc(OCC(=O)Nc2ccccc2C(F)(F)F)c(OC)c1 | inconclusive [inhibitor, single point] | –
O=C(CCn1ccc2cc(S(=O)(=O)N3CCCC3)ccc21)NCCc1ccccc1 | inconclusive [inhibitor, partial curve, poor fit] | –
CC1(C)CC(CC(=O)NNc2nc(-c3ccccc3)cs2)C(=O)O1 (configuration not stated) | inconclusive [inhibitor, single point] | –
COc1ccc(OC)c(NC(=O)CCN2CCN(c3ccccc3OC)CC2)c1 | inconclusive [inhibitor, single point] | –
Cc1ccc(CC(=O)Nc2nc3c(s2)CCCC3)cc1 | inconclusive [inhibitor, full curve] | –
COc1ccc(S(=O)(=O)N(Cc2nc(-c3ccc(C)cc3)no2)C2CCCCC2)cc1 | active: 7.31 µM | –
O=C(O)c1ccc(COc2ccc3ccccc3c2)o1 | – | inactive: -10.3%

Structure (SMILES) | Potency | activity change, negative = growth inhibition
O=C(CS(=O)(=O)c1ccc(Cl)cc1)Nc1nccs1 | inconclusive [inhibitor, single point] | –
COc1ccccc1C(CNC(=O)C(C)Oc1ccc(Br)cc1)N1CCCC1 (configuration not stated) | inconclusive [inhibitor, partial curve] | –
S=c1[nH]nc(C2CCCCC2)n1/N=C/c1ccncc1 | inconclusive [inhibitor, partial curve, poor fit] | –
Cc1oc(-c2ccccc2F)nc1CN1CCC(C(=O)NCCC2=CCCCC2)CC1 | active: 23.1 µM | –
COc1ccc(-c2noc(C3CCCN(C(=O)CCc4ccccc4)C3)n2)cc1 (configuration not stated) | inconclusive [inhibitor, single point] | –
CN1C(=O)/C(=C/c2ccco2)SC1=Nc1ccc(N2CCOCC2)cc1 | – | inactive: -13%
CCOC(=O)CNC(=O)CSc1nc2cccnc2n1CC | – | inactive: -5.19%
NC(=S)N1N=C(c2ccccc2)CC1=O | – | inactive: -1.98%
C=CCN(CC=C)C(=S)Nc1ccc(OC)c(OC)c1 | – | inactive: -24.1%
CC(=O)c1cc(-c2ccc(F)cc2)n(CCC(=O)NCc2ccccc2C)c1C | inconclusive [inhibitor, single point] | –
CCN(CC)C(=O)[C@H]1C[C@H](CC(=O)NCCCn2ccnc2)C(=O)N2CCc3c([nH]c4cc(-c5ccco5)ccc34)[C@]12C | inconclusive [inhibitor, single point] | –
CN(C)C(=O)CCc1ccc2c3c([nH]c2c1)[C@]1(CCC2CCCC2)[C@@H](C(=O)N2CCOCC2)C[C@H](CC(=O)NCCc2ccccn2)C(=O)N1CC3 | – | inactive: 2.78%
CCC1CCCCN1S(=O)(=O)c1ccccc1 (configuration not stated) | inconclusive [inhibitor, partial curve] | –
CCCCC(=O)Nc1cccc(-c2nc3ncccc3o2)c1 | – | inactive: -28%
Cc1nn(C)c(Oc2cccc(Cl)c2)c1C(=O)Nc1ccc(F)cc1F | inconclusive [inhibitor, single point] | –
COc1ccc(NC(=O)c2ccc3nc(CCc4ccccc4)oc3c2)cc1 | inconclusive [inhibitor, single point] | –
CCOC(=O)c1ccc(NC(=O)CC2S/C(=N/N=C/c3c[nH]c4ccccc34)NC2=O)cc1 (configuration not stated) | inconclusive [inhibitor, partial curve, poor fit] | –
O=C(COC(=O)c1cc(=O)[nH]c2ccc(Br)cc12)c1ccccc1 | – | inactive: -13.6%
C=CCn1c(SCc2ccc(C#N)cc2)nnc1-c1ccccc1 | – | inactive: -2.8%
CCCCC12CN3CC(C)(CN(C1)C3c1cc(Br)ccc1O)C2=O (configuration not stated) | inconclusive [inhibitor, single point] | –
COc1ccc(NC(=O)CCCNC(=O)Cn2cnc3sc4c(c3c2=O)CCCC4)cc1OC | – | inactive: 1.22%
COc1ccccc1N1CCN(C/C(C)=C/c2ccccc2)CC1 | inconclusive [inhibitor, partial curve] | –
CC1(C(=O)Nc2cccc(C(F)(F)F)c2)Cc2c(-c3ccccc3)ccnc2O1 (configuration not stated) | inconclusive [inhibitor, single point] | –
COc1ccccc1NC(=O)C1CCCN(c2nnc(C)c3c(C)n(-c4ccccc4)nc23)C1 (configuration not stated) | active: 8.2 µM | –
